According to publication PMC4277828 (BMC Pharmacology & Toxicology, 2014):

Columns and labels:
[1] = Steady-state plasma pharmacokinetics of rifabutin and 25-O-desacetylrifabutin with and without LPV/r-based ART (three-period crossover, LC/MS/MS, non-compartmental analysis); conditions: median (interquartile range), n = 14
[2] = Steady-state plasma pharmacokinetics of lopinavir given with two rifabutin doses (LCMS/MS, non-compartmental analysis); conditions: Median (Interquartile range); for concentration at 0 h / concentration at 12 h: human, plasma, oral; for concentration at 0 h: C0 (pre-dose concentration); for concentration at 12 h: Cmin (trough concentration)
[3] = Rifabutin 150 mg daily plus LPV/r

Q: With CO[C@H]1/C=C/O[C@@]2(C)Oc3c(C)c(O)c4c(c3C2=O)C2=NC3(CCN(CC(C)C)CC3)NC2=C(NC(=O)/C(C)=C\C=C\[C@H](C)[C@H](O)[C@@H](C)[C@@H](O)[C@@H](C)[C@H](OC(C)=O)[C@@H]1C)C4=O [Rifabutin, rifabutin] as the molecule, how does the “C0 (pre-dose concentration)” value [1, 3] read?
A: 176.5 (149.0-195.0) ng/mL

Q: And the Tmax [1, 3]?
A: 3.0 (3.0-4.0) h

Q: What about the “C0 (pre-dose concentration)” value ([1]; Rifabutin 150 mg tiw plus LPV/r) of the same molecule?
A: 49.1 (27.7-58.9) ng/mL

Q: What about the AUC(0-t) ([1]; human, plasma, oral, 150 mg, AUC0–48, Rifabutin 150 mg tiw plus LPV/r) of the same molecule?
A: 3400 ng·h/mL

Q: What about the Cmax ([1]; human, plasma, oral, 150 mg, Rifabutin 150 mg daily plus LPV/r) of the same molecule?
A: 311 ng/mL

Q: And the Cmax ([1]; human, plasma, oral, 150 mg, Rifabutin 150 mg tiw plus LPV/r)?
A: 168 ng/mL

Q: Which Tmax ([2]; RBT 150 mg tiw plus LPV/r) does the source give for Cc1cccc(C)c1OCC(=O)N[C@@H](Cc1ccccc1)[C@@H](O)C[C@H](Cc1ccccc1)NC(=O)[C@H](C(C)C)N1CCCNC1=O [lopinavir] here?
A: 2.0 (2.0-3.0) h

Q: What about the concentration at 0 h ([2]; RBT 150 mg daily plus LPV/r) of the same molecule?
A: 11400 ng/mL

Q: What about the concentration at 0 h ([2]; RBT 150 mg tiw plus LPV/r) of the same molecule?
A: 9800 ng/mL

Q: And the concentration at 12 h ([2]; RBT 150 mg daily plus LPV/r)?
A: 9400 ng/mL

Q: What about the concentration at 12 h ([2]; RBT 150 mg tiw plus LPV/r) of the same molecule?
A: 7400 ng/mL
